Reference: the supplement of paper PMC11417369
The other results are listed elsewhere or left out.

System: PF3D7_0420300 AP2 domain 1 (GST-tagged)
Assay: gcPBM binding intensity (ln(normalized median fluorescence intensity)); higher = stronger DNA binding
Summary of the method: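 DNA-binding domains from P. falciparum, fused to GST and produced in E. coli, were put on an Agilent 4 × 180k double-stranded probe array for 1 h in 1× PBS holding 1% milk, 0.2 mg/ml BSA, 0.5% salmon testes DNA and 0.03% Triton X-100. Probes were primer-extended, 36 bp long and drawn from intergenic genomic regions, with negative controls included. After Alexa488 anti-GST antibody detection and a 488 nm scan, binding intensity was set as the highest Masliner-normalised natural-log median intensity across replicate spots of either probe orientation.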

| Sequence | gcPBM binding intensity (ln) |
| --- | --- |
| TATATTTATATATGTTGTACTCTCCAATAATATTCC [XGTACX_site4438] | 9.28 |
| ATATATATATATAGGGGTACTTAAATTTTACTAACC [XGTACX_site1832] | 9.43 |
| ATTTTATTTATATACACACACATATATATATTATAT [CACACA_site822] | 9.79 |
| TTGTATCTTCATTTTATCAGAAAAAAAAAAAAAAAT [CACACA_negctrl_site775] | 8.75 |
| AATAAATAAATAAATTAATATATATATATATATAGA [CACACA_negctrl_site1661] | 9.2 |
| AAAGGGTTACAAGAGGAACACACAAAAAAATAAATA [CACACA_site8406] | 9.62 |
| AGCACCCACCAACACACACACACACCCACCCACCGA [CACACA_site368] | 10.3 |
| TTTTGCGAAAAAAGGTGTACTGTAAATATATTGAGG [XGTACX_site8941] | 9.09 |
| AAATAAATAAATATACGTACATATATATAATATATA [XGTACX_site5124] | 9.38 |
| TACGTAAATTTTAATACACACTATAGGATATTCTGC [CACACA_site5418] | 9.22 |
| TTTTTTTTGATTTGTTTGCACTTATTTCCACAATAA | 9.35 |
| TTTTTTTTTAATTACATAAAATAAAAATATTTCTAT [CACACA_negctrl_site584] | 8.75 |
| TTAATATGTTTAACCATTTTACATAAATTGATTTGT [CACACA_negctrl_site1100] | 9.25 |
| TTTTTAAAAAAATTGATTCTTTTTCTTTTTTTTCTT [XGTACX_negctrl_site127] | 8.78 |
| TTTTTTGCTTGGGTGAGAAAAAATAAAATAAAGGAA [TGCATGCA_negctrl_site139] | 8.96 |
| TTATAATCTTTTGGTTCTATAGAATATCAAAAAATA [CACACA_negctrl_site1149] | 8.76 |
| AAAAAATAAAAGGAAAAAAAAAAAAAAAAAAAAAAT [CACACA_negctrl_site635] | 9.46 |
| TATTATTGTCATTTTTTTTTTTTTTTTTTCTATTTC [XGTACX_negctrl_site114] | 9.31 |
| TTATTAAAAATGTATTGTACAAATTTATTAGTAAAT [XGTACX_site4799] | 9.02 |
| ATTTATACAAAGCTTCGTACATAATGTATTCTTTTT [XGTACX_site2166] | 9.37 |
| TTTTAATTGTTTATTTGTACATATGTTTAATTATAT [XGTACX_site571] | 9.38 |
| TTTAATATATATATGTGTACATATAAATTATATATA [XGTACX_site8511] | 8.96 |
| GTACTTATTAAATGTGCATGTTGATATATAAATGTA [TGCATGCA_site902] | 9.25 |
| TTTATATTTTAAAAAATAATATTATGTATTTTTAAA [TGCATGCA_negctrl_site507] | 8.68 |
